Results from PubChem BioAssay AID588342 (National Center for Advancing Translational Sciences (NCATS), 2011).
The whole screen tested about 360,000 compounds, of which about 25,000 (6.9%) were called active. The shares of active, inactive and inconclusive entries below differ from those in the screen. The call rests on the fitted dose curve; in most records, active means well fitted inhibition curve with a large enough effect; inconclusive means small, poorly fitted or top-dose-only effect; inactive means flat fitted curve, though single readings scatter. A potency beside an inconclusive call is a rough fit, not a confirmed value.

The compounds below were run against Luciferin 4-monooxygenase (Photinus pyralis) (UniProt P08659) (assay: qHTS profiling assay for firefly luciferase inhibitor/activator using purifed enzyme and Km concentrations of substrates (counterscreen for miR-21 project)). Settings: purified FLuc, luminescence inhibition; series mostly up to 57.5 µM.
UniProt P08659, sequence (P08659 whole entry, looked up): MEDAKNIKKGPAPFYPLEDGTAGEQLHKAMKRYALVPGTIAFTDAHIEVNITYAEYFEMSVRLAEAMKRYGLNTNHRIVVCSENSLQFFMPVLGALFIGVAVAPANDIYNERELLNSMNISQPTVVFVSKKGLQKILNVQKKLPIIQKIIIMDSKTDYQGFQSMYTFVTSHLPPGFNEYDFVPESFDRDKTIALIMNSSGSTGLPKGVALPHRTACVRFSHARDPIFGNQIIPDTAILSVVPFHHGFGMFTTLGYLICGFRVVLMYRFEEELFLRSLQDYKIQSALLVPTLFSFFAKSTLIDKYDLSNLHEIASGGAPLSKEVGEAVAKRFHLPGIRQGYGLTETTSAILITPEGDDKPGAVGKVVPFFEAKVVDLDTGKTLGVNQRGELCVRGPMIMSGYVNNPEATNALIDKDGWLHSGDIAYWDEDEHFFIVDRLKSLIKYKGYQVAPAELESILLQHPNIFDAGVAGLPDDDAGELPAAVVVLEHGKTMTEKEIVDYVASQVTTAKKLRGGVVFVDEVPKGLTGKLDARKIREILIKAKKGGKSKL
Method in brief: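 Biochemical qHTS of compounds, final roughly 60 µM downward over six points, against 10 nM purified firefly luciferase using Km concentrations of substrates (10 uM D-luciferin, 10 uM ATP) in Tris acetate pH 7.5 buffer; luminescence output.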
Further: nearly all actives have a fitted effect of over 55% in size.
Potency means the concentration at half of the fitted maximal effect; tags describe the fitted curve by direction and shape.

SMILES	Potency
O=C(Cc1ccc(F)cc1)Nc1nc(-c2ccc(F)c(F)c2)cs1	inconclusive: 26.9 µM [inhibitor, single point]
CN1c2ccsc2/C(=N/Nc2ccccc2)CS1(=O)=O	inconclusive: 23.9 µM [inhibitor, single point]
CC1=Nc2ccccc2N=C(NC(=O)CSC(=S)N2CCCCC2)C1c1ccccc1 (stereo not given)	inactive
CCN1C(=O)CC(c2ccc(OC(C)C)cc2)C1=O (stereo not given)	inactive
CCOc1ccc(N2CC(C(=O)NCCc3ccc(F)cc3)CC2=O)cc1 (stereo not given)	inactive
COc1cccc(C2Nc3ccccc3C(=O)N2O)c1O (stereo not given)	inconclusive: 37.9 µM [inhibitor, partial curve, poor fit]
COc1ccc(CNC(=O)c2noc3c2CCCC3)cc1	inconclusive: 30.1 µM [inhibitor, partial curve, poor fit]
Cc1ccc(-n2ncc3c(NCc4ccccc4)ncnc32)cc1Cl	inconclusive: 6.01 µM [inhibitor, partial curve, poor fit]
O=C(/C=C/c1ccc2c(c1)OCO2)NCc1ccc(F)cc1	inconclusive: 26.9 µM [inhibitor, partial curve, poor fit]
CCC(=O)OCCNc1cc(Sc2nc3ccccc3s2)c2nonc2c1[N+](=O)[O-]	inconclusive: 6.75 µM [inhibitor, full curve]
Cc1ccc(NC(=O)CN2C(=O)N/C(=C/c3ccccc3OCc3cccc(C(=O)O)c3)C2=O)cc1	inconclusive: 23.9 µM [inhibitor, single point]
Cc1cccc(NC(=O)CSc2nc3ccc(NC(=O)c4ccccc4)cc3s2)c1	inconclusive: 5.36 µM [inhibitor, full curve]
c1ccc2sc(-c3ccncc3)nc2c1	active: 15.1 µM
COc1cccc(OCc2nc(-c3ccc(Br)o3)no2)c1	inconclusive: 26.9 µM [inhibitor, single point]
CCc1ccc(-c2nc(CSCC(=O)NCc3ccco3)c(C)o2)cc1	active: 23.9 µM
O=C(O)/C(=C\c1ccc(Cl)cc1)c1ccc(F)cc1	inconclusive: 21.3 µM [inhibitor, partial curve]
CC(=O)N1c2ccc(S(=O)(=O)N3CCCCCC3)cc2CC1C(=O)NCc1cccc(C)c1 (stereo not given)	inactive
O=C(NCCc1csc(-c2cccnc2)n1)c1cccc(Cl)c1	inconclusive: 37.9 µM [inhibitor, single point]
C/C(=N\Nc1cc(N2CCOCC2)ncn1)c1ccc(O)cc1	active: 19 µM
CCOC(=O)CNC(=O)c1nn(-c2cccc(OC)c2)c(=O)c2ccccc12	inactive
Cc1nc(SCc2cccc(Cl)c2)nc2c1CCCC2	inconclusive: 13.5 µM [inhibitor, partial curve, poor fit]
Cc1ccccc1Cn1c(SCc2ccc(C(=O)NC3CCCCC3)cc2)nc2ccncc21	inconclusive: 21.3 µM [inhibitor, partial curve, poor fit]
CC(C)(C)NC(=O)C(c1cccs1)N(C(=O)c1csnn1)c1ccccc1F (stereo not given)	inconclusive: 0.0107 µM [inhibitor, partial curve, poor fit]

SMILES	Potency
O=C(Nc1nc2c(s1)CCCC2=O)c1cnccn1	inconclusive: 16.9 µM [inhibitor, partial curve]
CC(C)N(Cc1nc(-c2ccc(Cl)cc2)no1)C(=O)c1ccc(C(C)(C)C)cc1	inactive
CCn1c(/C=N/Nc2ccc(C(=O)O)cc2)nc2ccccc21	active: 10.7 µM
CSc1nc(Cl)cc(Nc2ccc(O)cc2)n1	inconclusive: 26.9 µM [inhibitor, single point]
O=C(CSc1nnc(SCc2ccccc2)s1)N/N=C/c1c(Cl)cccc1Cl	inconclusive: 19 µM [inhibitor, partial curve]
O=C(NC(Cc1ccccc1)C(=O)N1CCN(c2ccccc2O)CC1)c1ccccc1 (stereo not given)	inactive
CC(C)(C)NC(=O)CSc1nc2ccccc2c(=O)[nH]1	inconclusive: 37.9 µM [inhibitor, single point]
O=C(CNC(=O)c1cccc(F)c1)N/N=C/c1ccc(O)c([N+](=O)[O-])c1	inconclusive: 26.9 µM [inhibitor, single point]
Cc1ccc(NC(=O)COC(=O)c2ccccc2Cl)cc1S(=O)(=O)N(C)C	inconclusive: 26.9 µM [inhibitor, partial curve, poor fit]
Cc1ccc(Nc2c(-c3ccsc3)nc3c(C)cccn23)cc1	inconclusive: 19 µM [inhibitor, partial curve]
COc1ccc(C2CC2/C(=N/O)c2ccccc2)cc1 (stereo not given)	inconclusive: 26.9 µM [inhibitor, single point]
Cc1ccc(N/N=C(\Cc2nc3ccccc3[nH]2)c2ccccc2)cc1	inconclusive: 26.9 µM [inhibitor, single point]
CCCC(=O)Nc1ccc2c(c1)nc1n2CCN(C2CCCCC2)C1	inactive
Cc1c(NC(=O)C(C)Oc2ccc(Br)cc2Cl)c(=O)n(-c2ccccc2)n1C (stereo not given)	inactive
CC(C)c1ccc(/C=C/C(=O)NCCCc2ccccc2)cc1	inconclusive: 26.9 µM [inhibitor, single point]
O=C(Nc1ccccc1C(=O)NCc1ccco1)NC1CCCCC1	inconclusive: 37.9 µM [inhibitor, single point]
Cc1c(/C=N/Nc2ccc(F)cc2)c(O)n(C)c(=O)c1C#N	active: 23.9 µM
O=C(OCC(=O)N1CCCCC1)c1ccccc1SCC(=O)N1CCCCC1	inconclusive: 23.9 µM [inhibitor, partial curve]
COc1ccc(-c2nn3c(=O)c(C)nnc3s2)cc1	inconclusive: 26.9 µM [inhibitor, single point]
CCCCOC(=O)c1ccc(NC(=O)COC(=O)c2ccc3ncsc3c2)cc1	inconclusive: 21.3 µM [inhibitor, partial curve, poor fit]
CCOc1ccc(NC(N)=O)cc1	inactive
CC(C)N=C1NN=C(c2ccc(Cl)c(Cl)c2)CS1	active: 3.38 µM
